Over roughly 33,000 sequences, “E-score (-0.5 to 0.5)” has its median near -0.056; the highest 2% begin near 0.38. The list shows a part of the results.
molecular target: Stb4 (UniProt P50104); test: PBM E-score (8-mer binding enrichment) (E-score (-0.5 to 0.5)); higher = stronger / more preferred TF binding; most listed sequences are background and not binding sites; details: protein concentration: 200 nM; construct: GST-DNA-binding domain
How it was run: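 Full-length yeast transcription factors or their DNA-binding domains, GST-tagged and expressed with PURExpress, were applied at about 100-200 nM to universal all-10-mer Agilent arrays. These arrays had been made double-stranded by primer extension on fresh or once-stripped slides. Detection used fluorescent anti-GST, normalisation used masliner, and E-scores for ungapped eight-base words pooled with reverse complements came from the Universal PBM Analysis Suite.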

Sequence	PBM E-score
GAGTGAGA	0.0876
ATAGCTCG	0.152
CTACCAGA	-0.0851
ACGACACA	-0.281
CGCGTTCC	0.245
ATTCGACC	-0.194
TGTAATAA	-0.181
CTGATGAA	-0.359
AACCTGTC	-0.08
ATGCGTAC	0.0213
TCACAAGA	-0.198
CGCCGAAC	0.366
GTTTGCGA	-0.155
CGCAGCCA	0.0301
CTGTTTAC	-0.154
ACTCTGCC	-0.191
ACCGAGAA	0.311
CTCCTAAC	-0.259
CATGGAAA	-0.032
ACAGCAGG	-0.0442
AATCATCA	-0.164
CCACGCGG	-0.00071
CCCATTAA	-0.202
GAGTGGGA	-0.0992
GCTATTTA	-0.05

Sequence	PBM E-score
GAAGCATA	-0.0469
ATGACGGA	0.217
ACGCACTG	-0.184
AAAAGACA	0.0104
AACGTAGG	-0.0963
AACACGTA	-0.0377
GACCGTCC	0.064
CAAAGCTC	0.0253
CCAAACAG	-0.345
GAGTAGAC	0.0497
GAGCGCTA	-0.149
AGTGACAT	-0.243
GCCAGGAA	-0.228
AATTCATA	-0.153
CCAGTTAA	0.0132
CCATAGAC	-0.22
GTTATCCA	0.0169
AGACCTCA	-0.366
AACCTGAC	-0.223
AGGACTCA	-0.145
AGGTACTC	-0.124
CACGATCA	-0.203
CGCATGCC	0.224
ACCTGCGG	0.0918
ATGGCTCA	-0.316

Sequence	PBM E-score
AATGTCCT	-0.127
AGCTGAAA	0.0434
AGTCGGCG	0.117
GAAGTTTA	0.138
ACTCGTGC	-0.0301
GAGGGATC	0.116
GACGACTC	0.115
CCCAACGA	-0.114
ACCTTAGT	-0.164
CCAACGCA	-0.109
TAAGCAGA	-0.0808
CGACATAA	0.0898
GAAGTTGC	-0.134
ACCGATGG	0.176
AGCTATAC	-0.196
CTCGCAGC	-0.0635
GTAGGCCA	-0.18
CAGTGGCG	-0.226
AGATGCTC	0.0615
ACGTGTTG	-0.131
CGTCCCAG	-0.196
AGGGTGGC	-0.156
CGCTCGAG	-0.154
GCGTCCCC	-0.0409
CATGGTGA	-0.0869

Sequence	PBM E-score
ACTCGCCT	-0.213
CTACTCCA	-0.257
GACTGAGA	-0.153
ACCGACCT	0.176
CTCCACGC	-0.0795
CCCTAGTA	-0.0177
GATAACAA	0.0225
GATGGCCC	0.0557
GAAGACTA	-0.0159
GCTACTTA	-0.315
ATGGCGTA	-0.0425
ACTAACGG	0.163
CCAATGTC	-0.188
ACCGGACC	0.266
CATGGCTC	-0.0721
GGTCAAAA	-0.0358
CCCAGGGC	-0.196
CATGTGAA	-0.0841
CTACCTAA	-0.158
GGAATGTA	0.229
GACTCTGC	-0.0834
AAAACTAC	0.0922
AGCTGGAC	-0.225
GGGCCAAC	0.0192
CTTTGGCA	-0.042

Sequence	PBM E-score
AAAAGGAA	0.107
AACAGGAT	-0.283
ACGGACAT	0.131
AGCAGACA	-0.0876
CACAAAGG	-0.0743
CCACAGCC	0.0742
CCCAGTCC	-0.0011
CCCACTGA	-0.148
CTCCAGAG	-0.019
GTGACATA	-0.0862
AGGACTGG	-0.265
CCTCCTAG	-0.234
GGGTGTAA	0.0872
AATTCAAA	-0.287
ACCAAGGG	-0.185
ATAGTCAA	-0.111
GGTCGCGA	0.0519
AGGGTGCC	-0.214
GTATCGGA	0.39
ACACGAAT	-0.00722
CAGCTCGG	0.392
AACCTAAT	-0.0366
AAGCCAGA	0.0259
AATATGAA	-0.111
CTGCCTGA	-0.0948

Sequence	PBM E-score
ACTACCGA	0.349
ATTCCGCG	0.271
ATCACAAT	-0.0437
CACGGAAA	0.352
TAGATGGA	-0.167
GAGTCCGC	0.122
GTAGAATA	-0.0899
GGACGCAC	-0.0598
CTAGCAAC	-0.0195
ACGTGACG	-0.0361
TCCACGCA	-0.0587
AAATAAGG	-0.00136
AGCTCCAC	0.00365
ACACGATG	-0.189
AGGAAGAC	-0.3
GCATTAAC	0.143
ATCGGCGC	0.205
ACGCCTCA	-0.25
GGTATAAC	0.00702
GCGCCCGA	0.261
AGTTTTAG	-0.183
GTTACTTA	0.0445
AAGACGCA	-0.102
CACCAGAG	-0.282
TAGCGACA	-0.154

Sequence	PBM E-score
ATCCTAAA	-0.193
GGACATGA	0.144
ACTGACAA	-0.147
GCAAGTCA	-0.0316
ACAACTAA	-0.126
ACCTAATA	0.00879
TCGGGGCA	0.226
TCATCGGA	0.403
CCAGAAGG	-0.109
GTGCTTAA	-0.0757
TAGGATAA	-0.0915
CGCTAACC	0.0933
ATCGTCAC	-0.193
GACCTCCC	0.0971
ACATTTTC	0.117
GTGTAATA	-0.0136
ATGGCCAA	-0.131
GCGGGCCA	0.00921
CTCTTGTC	-0.0749
AGATTTAG	-0.0774
TACATTAA	-0.0317
AATTATCC	0.268
ACATGGTA	-0.0896
CAAGGGCA	-0.139
ACGCCATC	0.0216

Sequence	PBM E-score
ATGAGACC	-0.0804
ATCAAAGG	-0.0908
CCACCGAA	0.104
ATTCATGA	-0.244
GTACACAA	-0.091
GTACAACA	-0.0463
ATACATGC	-0.115
CGCGTTCA	0.0551
CATGCCGG	0.239
GCAGGAAC	-0.0981
CTATGACA	-0.0513
CGTCTTGA	-0.00666
ACGATGGC	-0.196
AACAGAAA	-0.122
TACTGGGA	-0.119
AGCGAGGG	-0.234
AGTGCGAC	0.0915
CGAAAGAA	0.0769
ACCCGAGG	0.427
TGTGTTAA	-0.207
ATGGTTTA	0.193
CCATTATA	-0.00472
CTCGTTGC	-0.194
ACATTTAT	-0.116
GCTCTTTA	-0.0604

Sequence	PBM E-score
ACTGAGAA	-0.0509
GCAACCCC	-0.00033
ACGGACTC	-0.0191
CGGGATTA	0.365
ATAAATGG	-0.0964
ATGACGAG	-0.104
AGCATTAG	-0.0943
ATCGTTGA	-0.09
ATCGTCAA	-0.0823
CACCTTAG	-0.135
ACCCACGT	-0.135
CTCTCTGC	-0.198
AAACGGTA	0.13
CGGACAAG	0.138
CACTCCCG	0.335
CTAAGAAG	-0.13
GAGCGACC	-0.138
CAAACCCA	-0.00457
CGTATCCA	-0.124
GAATAGTA	-0.0416
AACACGCC	-0.00358
GGATAAGA	0.175
AGTAAATC	-0.24
GAAATGTC	0.118
AAGATTGA	-0.261

Sequence	PBM E-score
GAATAGCC	0.126
GAAGGACC	0.0383
AGTGGTTG	-0.172
ACGGCGTG	-0.0208
CGAGTTTC	0.113
GAGGCTAC	-0.206
AATAGGCA	-0.0588
ATGAACAA	-0.0735
AACAGCGA	-0.213
AGCTGTAT	-0.191
GGACGCGA	-0.163
TAGCAACA	0.0435
CCGCTAGC	0.061
ACCTTACC	0.0694
ACCAATAG	-0.265
CCTCTGCC	-0.186
AATGCCCG	0.126
AAGCACCA	-0.28
AGTGCTTG	-0.179
CGAATGTC	0.038
ATTTGCCG	0.356
AACATACG	0.124
CTCTCCTA	-0.148
TCCATGCA	0.033
AGCACGCT	-0.249

Sequence	PBM E-score
ACTCTACA	-0.0328
CACTCCGA	0.295
ACGAAGGA	-0.161
ACTGTAGG	-0.127
CTTACGTC	-0.153
TCATTAAA	0.00667
AAAGGTCG	-0.037
TCTTAAAA	-0.236
GTTATGGA	-0.199
CTTAGTAA	0.045
AGGCGACC	-0.0143
GATCATCA	-0.0412
TCACCTGA	-0.168
ATCGATCA	-0.0367
ACAGAAGT	-0.197
CCGTAAAC	0.116
CCATGGAC	-0.152
GCCAGCCC	-0.121
CCGCAGGA	0.0463
CGAGCCTC	0.201
CGCCGATA	0.27
ACGCCTCT	-0.289
ACGAAGGC	-0.0627
ACCGAAGC	0.287
ATCGCGCG	0.0342

Sequence	PBM E-score
GGCCTGAC	0.0392
ACATTAGG	-0.193
GACAAGCA	-0.0967
AAGCTCGT	-0.187
ATTCTTTC	-0.0171
GAGCGAGA	0.111
CACTGGAA	-0.237
ACTGGAAA	-0.127
ATGTGGGA	-0.132
GAACATTC	0.118
AATTTGCG	-0.131
GCTGTACA	-0.0175
CGAGGGTC	0.271
GAGGCGAA	0.115
CTTGACAA	-0.0427
ACTAATTA	-0.131
GCCGATCA	0.266
GATTCGAA	-0.0188
ACCGGGCT	0.193
AGATACAC	-0.107
CATCACAC	0.0112
AGATTGCT	-0.249
CACCATCC	0.00805
GAACAATC	0.0612
AAATCAGC	-0.0498

Sequence	PBM E-score
GTTGAATA	0.0113
AGTGATGC	-0.0769
CATGCAGG	-0.262
CTTCGCCC	-0.0948
CCAACCGG	0.122
AGTTCCTC	-0.0195
TGGACCAA	-0.0635
ATAGACAC	-0.115
CCCATAAG	-0.0628
AATGGCTA	-0.0824
AGCCTCCT	-0.207
ACCCTAGG	-0.188
GGGTATGA	0.15
CCAAAAGA	-0.158
GTTAGCAA	-0.0621
CACCGACG	0.235
AGGCGAGC	-0.166
ATATCCAC	0.0551
AAATGAGC	-0.0462
ATTCGGCG	0.333
AGGCGTAT	-0.27
CGTACCTC	0.0479
GGCGAACA	-0.00947
CAACGCAA	-0.0807
CGTCGTCC	0.0384

Sequence	PBM E-score
CCCGGCGG	0.282
GCTAACAC	-0.0672
ACATGGGG	-0.0245
GTCCGGCA	0.163
ACGTTTTC	0.0722
GTCTGAAC	-0.0286
AAGAATTC	-0.0467
AAGGCGAA	0.00117
AGGCAACC	-0.116
ATTAAAAA	0.133
TCGTGAGA	0.0565
AACCAGGC	-0.0888
CTCGCACC	-0.0226
AAAGGCGC	-0.184
TCAAGTCA	-0.133
ATATGGGG	-0.0196
AAGAAGTA	-0.109
AAGATACA	-0.147
GGTCTGTA	0.0694

Reference: the supplement of paper PMC3334620
